First the molecules themselves.
B1: 01.y.01 (protein)
chain 1: EVQLVESGGGLVQPGGSLRLSCAASGFTFSSYWMTWVRQAPGKGLEWVANIKQDGSSKYYVDSLKGRFTISRDNAKNSLYLQMNSLRDEDTAVYYCARDRTPGYSYGYVDRVVWRNPYYGMDVWGQGTTVAVSS
chain 2: DIQMTQRPVSLSASVGDTVTITCRASHSIATYLNWYQQKPGKAPNLLISTASDLQSGVPSRFSGSGSGTDFTLTIDSLQPEDFATYYCQQSYSIPLTFGGGTRVEIK
B2: 051-09-5B06 (protein)
chain 1: EVQLVESGGGLVKPGGSLRLSCAASGFPISIGWTTWVRQAPGKGLEWVGLMKSDNGGGATLYAAPMKGRFSISRDDSKNTVYLQMDRLETEDTGIYYCSSTADRDYYDTAGFLDFWGPGTLVTVSS
chain 2: DIVMTQSPLSLTVTPGESASISCRSSQNVQHSNGYNYLHWYLQKPGQSPRLLIYLGSNRASGVPDRFSGSGSGTDFTLKISRVEADDVGVYYCMQALQTRTFGGGTKVEIK
B3: antibody 1A03 (protein)
chain 1: VQLLESGGGLVNPGRSLRLSCTASGFTFGDYAVSWFRQAPGKGLEWVGFIGSKKYGDTIEYAASVRGRFTISRDDFQSTAYLQMNSLRTEDTGVYFCSRDRQLAEHSMDVWGQGTTVTVSS
chain 2: DIQMTQSPSSLSASVGDRVTIPCRANQSISTHINWYQQKPGKAPKLVIYGASNLETGVPSRFSGGGSGTDFTLTISSLQPEDIATFYCQQYDTFPITFGQGTRLEIK
B4: R95-2E11 (protein)
chain 1: EVQLVESGGGLVQPGRSLRLSCAASGFTFDDYAMHWVRQAPGKGLEWVSGISWNSGHLGYADSVKGRFTISRDNVKNSLYLEMNSLGPEDTALYYCAKDIVGDYGSGSYYDYWGQGTLVTVSS
chain 2: SYELTQPPSVSVAPGQTARITCGGNNIGSKSVHWYQQKPGQAPVLVVYDDSDRPSGIPERFSGSNSGNTATLTISRVEAGDEADYYCQVWDGSSDHRYVFGTGTKVTVL
B5: W85-2E09 (protein)
chain 1: EVQLVESGGGLVQPGRSLRLSCTASGFTFSDYTMNWVRQAPGKGLEWIGFIRSNLYGGTSPYPASVRDRFTISRDDSKNIAYLQMNSLNTEDTAVYFCSRRRRGSTPLPDLWGQGTLVTVSS
chain 2: DIQMTQSPSTLSASVGDRVTITCRASQNVFSWLAWYQQKSGKAPQLLIYKASNLESGVPSRFSGSGSGTEFTLTINNLQPDDFASYYCQQYNSHSVWTFGQGTKVELK
B6: antibody 3E05 (protein)
chain 1: EVQLVESGGGLVQPGGSLRLSCAASGFTFSSYDMHWVRQAAGKGLEWVSAIGTAGDPYYPGSVKGRFTISRENAKNSLYLQLNSLRAGDTAVYYCARGVAASLVPRRYYYGLDVWGQGTTVTVSS
chain 2: SYELTQPPSVSVSPGQTASITCSGDMLGDKYACWYQQKPGQSPVLVIYEDTKRPSGIPERFSGSNSGNTATLTISGTQAMDEADYYCQAWTGSTPVVFGGGTKLTVL
B7: C1-3E03 (protein)
chain 1: VQLVESGGGLVQPGGSLRLSCVVSGFSFSKYEMNWVRQAPGKGLEWISYISSSGETIFYADSVRGRFTTSRDNAHNSLYLQMNSLRAEDTAIYYCANMRAWFWYDPADDIGHWGQGTLVTVSS
chain 2: EIVMTQSPVTLSVFPGERATLSCRASQSVNNNLAWYQQRPGQTPKLLIYDASTRATGIPARFSGSGSGTVFTLTISSLQSEDIAVYYCQQYAGWPPWTFGQGTKVEIK
B8: W85-1H08 (protein)
chain 1: EVQVVESGGGVVQPGRSLRLSCAASGFTFGSYAMYWVRQAPGKGLEWVAVISYDGSDKYYGDFVKGRFTISRDNSKNTLYLQMNSLRVEDTAVYYCLRGRYGDPPTDFWGQGTLVTVSS
chain 2: QSALTQPPSVSEAPRQRVTISCSGSRSNIGNNAVNWYQQLPGKAPKLLIFYDDLLSSGVSDRFSGSKSGTSASLAISGLQSEDEADYYCATWDDILNGPVFGGGTKLTV
B9: AG1-A01 (protein)
chain 1: VQLVESGGGFVQAGRSLRLSCAASGFIFDDFAMHWVRQAPGGGLEWVSHISSNSGLIVYAESVKGRFTISRDNAMDALYLQMNSLTIEDTAFYYCMKGGHYSDSRGYGSNWGRGTLVTVSS
chain 2: DIQMTQSPSSLSASVGDRVTITCRTSQAISNRLAWFQQKPGKAPKSLIYAASTLQTGVPSKFSGTGSGTDFTLTISSLQPEDFATYYCQQYKSFPLTFGRGTKVEIK
B10: 051-10-2D06 (protein)
chain 1: EVQLVESGGGLVQPGGSLRLSCAASGFTFTRHWMSWVRQAPGKGLEWVANVKQDGSDKYYVDSVKGRFTISRDNAKNSVYLQMNSLRAEDTAVYYCARYGGSYLDYWGQGTLVTVSS
chain 2: QSALTQPASVSGSPGQSISISCTGTSSDVGNYNFVSWYQQHPGKAPKLMIYEDNKRPSGVSSRFSGSKSGNTASLTIFGLQAEDEADYYCCSYAGSSTYVFGTGTRVPVL
B11: K77-2H08 (protein)
chain 1: QVQLQESGPGLVKPSETLSLTCSVSGNSITSGYFWGWIRQTPGKGLEFIGSISHKGEPYYNPPLKGRVAVSSDTSKNEFSLTLASVTAADTAIYYCARERGGTYGYFDHWGPGSLVTVSS
chain 2: DIQMTQSPSTLSASVGDRVTITCRASESIGAWVTWYQQKPGKAPNLLIYKASTLQTGVPSRFSGGGSGTDFTLTISSLQPDDFATYYCQQYFRDVTFGQGTKVEIK
B12: R95-1H10 (protein)
chain 1: EVQLVESGGVVVQPGGSLRLSCAASGFTFDDFVMHWVRQAPGKGLEWLSLITWDGGNSYYADSVKGRFTISRDNNKNSLYLQMNSLRPEDTAFYYCAKDIISGNYEDFSGYLDSWGQGTLVTVSS
chain 2: EIVMTQSPATLSVSPGGRATLSCRASQSVSSNLAWYQQKPGQPPRLLMYGASTRATGIPARFSGSGSGTEFTLTISSLQSEDVAVYYCQQYNNWPSITFGQGTRLEIK
B13: antibody 1D02 (protein)
chain 1: EVQLVESGGGLEQPGRSLRLSCEASGFTFDEYAMHWVRQAPGKGLEWVSGISWSSGVIGYADSVRGRFTISRDNAKNSLYLQMNSLTGEDTALYYCAKDSVAETAIRGYYFDYWGQGTLVTVSS
chain 2: DIQMTQSPSTLSASVGDRVTITCRASQYISRWLAWYQQKPGKAPNLLIYDASSLETGVPSRFSGSGSGTEFTLTINSLQPDDFATYYCQQYHSLSALTFGGGTKVEIK
B14: AG11-2A01 (protein)
chain 1: VQLVESGGAVVQPGGSLTLSCAASGFTFDDYAMHWVREVPGKGLEWVSLISWDAGNTYYGDSVKGRFNISRDNSKNFLYLQMNSLRADDTALYYCAKDIGGGNYDYYHGMDAWGQGTTVTVSS
chain 2: EIVMTQSPATLSVSPGERATLSCRASYSFGSKLAWYQQKPGQAPRLLIYGTSTRATGIPARFSGSGSGTEFTLTISSLQSEDFAVYYCQQYNNWPYTFGQGTKVEIK
B15: SFV009-3A02 (protein)
chain 1: EVQLLESGGGLVQPGGSLRLSCEASGFTFISYAMSWVRQAPGKGLEWVSVISGSGGARYYADSVKGRFTISRDNSKNTLYLEMNNVRAEDTAVYFCAKDRILPYDTDAFDIWGQGTMVTVSS
chain 2: DIQMTQSPSTLSASVGDRVTITCRASESVSVSLAWYQQKPGKAPKLLIYKASTLESGVPPRFSGSGSGTEFTLTISSLQPNDFATYYCQEYHTSSRVTFGPGTKVDIK
B16: K77-1D10 (protein)
chain 1: QVQLQESGPGLVKTSGTLSLTCAVSGGSMSSSDWWSWVRQPPGKGLEWIGEIHRSGTSNYNPSLQTRVTISVDKSKNQFSLKLTSVTAADTAVYYCARVATLYYDDNTPYSSYYFDFWGQGILVPVSS
chain 2: EIVLTQSPGTLSLSPGERATLSCRASQSVSTNYLAWYQQSPGQAPRLLIYGASSRAAGIPDRFSGSGSGTDFTLTITRLEPEDFAVYYCQHYVTSPLFGGGTKVEI
B17: 236-14-IgG-1A06 (protein)
chain 1: QVQLQESGPGLVKPSETLSLTCTVSGGSISSSSHYCTWIRQPPGKGLEWIGGIYYTGNAYYNPSLKSRVTISVDASKNQFSLKLRSVTAADTAVFYCVGSQAIDAFDFWGQGTMVTVSS
chain 2: QSALTQPPSASGSPGQSVTISCTGTSSDVGYYNYVSWYQQHPGKAPKLMIYEVSNRPSGVPDRFSGSKSGNSASLTVSGLQAEDEADYYCSSYGGSNNVIFGGGTKLTVL
B18: R95-2B02 (protein)
chain 1: QVQLVQSGAEVKKPGASVKVSCKASGYTFTGYYLHWVRQAPGQGLEWMGWINPDSGGTSFAQKFQGWATMTSDTSISTAYMELSGLKSDDTAVYYCARIQRAGSGFDLWGQGTMVTVSS
chain 2: QSALTQPASVSGSPGQSITISCSGTSSDVGSYNLVSWYQQHPGKTPKLMIYDVSKRPSGVSNRFSGSKSGSTASLTVSGLQAEDEADYYCYSYAGSRAWVFGGGTKLTV
B19: K77-1E06 (protein)
chain 1: EVQVVESGGRLVRPGGSLRLSCAASGFILSNFWMTWVRQAPGKGLEFVANIKQDGSLKYYVDSVKGRFTISRDNAMNSVYLQMNSVRAEDSAVYYCARDWFGRELGAMDIWGQGTTVTVSS
chain 2: DIVMTQSPDSLAVSLGERATINCKSSQTLLSRSNNKNYLAWYQHRPGQPPKLLIYWASTRASGVPDRFSGSGSGTDFTLTITSLQAEDVAVYFCQQYYGSPLTFGGGTRVQIK

The results in this text go back to the supplement of paper PMC11383711.

The list shows a part of the results. Binding of human antibodies (heavy:light variable regions, tested as scFv in one mRNA-display pool) to influenza hemagglutinin, with or without the stem antibody CR9114 bound first. Score = (mean enrichment − median) / interquartile range of that screen; higher = more enriched, 0 = typical non-binder. Active = above the paper's cut-off per screen: stems 28; unblocked H1 Solomon Islands 5, H1 Michigan 3, H3 5, H5 19, H7 2.85, both B 5; blocked 9, 7, H5 10, H7 10, B Phuket 10, B Lee 11.5. Scores are scaled within each screen and are no affinities; replicates correlate at about 0.6 to 0.9, and antibodies rare in the pool are noisier.

One test has as its target H1 HA stem construct (mini-HA #4900). As to the kind of experiment: mRNA display binding score; higher = more enriched on the antigen. Particulars: antigen blocked with: nothing. Here is the method:
(§1)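 A pool of natively paired antibodies, displayed as scFv on mRNA, was selected once on antigen-coated beads and sequenced before and after; two replicates.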
Regarding B1, the “mRNA display binding score” value was inactive: 0.107.
Same read-out and setting: the value for B2 was inactive: 0.103; that for B3 was inactive: -0.188; that for B4 was inactive: -1.11.
On the same count and under the same terms, the value for B5 was inactive: 0.403.
Same read-out and setting: the value for B6 was inactive: -0.00878; that for B7 was inactive: -0.231.
On to B8, for which the “mRNA display binding score” value is inactive: -1.03.
For the molecule B9, the “mRNA display binding score” value is inactive: 1.04.
Same read-out and setting: the value for B10 was inactive: -1.27.
As to B11, the “mRNA display binding score” value was inactive: -0.347.
As for B12, the “mRNA display binding score” value was inactive: -0.287.
Same read-out and setting: the value for B13 was inactive: -0.459.
For B14, the “mRNA display binding score” value was inactive: -1.22.
Same read-out and setting: the value for B15 was inactive: -0.82.
For B16, the “mRNA display binding score” value is inactive: 0.381.
As to B17, the “mRNA display binding score” value is inactive: 0.806.
Still for that read-out and setting: the value for B18 was inactive: -1.01; that for B19 was inactive: -0.399.

The target in a further test is H3 HA stem construct (H3ssF). Described as above. The note with it: antigen blocked with: nothing. The method, then:
as §1
Take B1: the “mRNA display binding score” value was inactive: -0.504.
For B2, the “mRNA display binding score” value was inactive: 0.484.
Still for that read-out and setting: the value for B3 was inactive: -0.133; that for B4 was inactive: -0.63; that for B5 was inactive: -0.127.
Still for that read-out and setting: the value for B6 was inactive: 0.0199.
As to B7, the “mRNA display binding score” value is inactive: -0.0427.
In the case of B8, the “mRNA display binding score” value is inactive: 0.0882.
Still for that read-out and setting: the value for B9 was inactive: 0.563; that for B10 was inactive: 1.37; that for B11 was inactive: -0.411.
With B12, the “mRNA display binding score” value is inactive: -0.0913.
As for B13, the “mRNA display binding score” value was inactive: -0.669.
Same read-out and setting: the value for B14 was inactive: 0.161; that for B15 was inactive: -0.493.
Same read-out and setting: the value for B16 was inactive: 0.269; that for B17 was inactive: -0.0939.
On to B18, for which the “mRNA display binding score” value was inactive: -0.315.
Still for that read-out and setting: the value for B19 was inactive: -0.65.
